Test results as given in the supplement of paper PMC11417369.
The list shows a part of the results.

system: PfSIP2 AP2 domain 1 (GST-tagged); assay: gcPBM binding intensity (ln(normalized median fluorescence intensity)); higher = stronger DNA binding
Procedure, shortened: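 DNA-binding domains from P. falciparum, fused to GST and produced in E. coli, were put on an Agilent 4 × 180k double-stranded probe array for 1 h in 1× PBS holding 1% milk, 0.2 mg/ml BSA, 0.5% salmon testes DNA and 0.03% Triton X-100. Probes were primer-extended, 36 bp long and drawn from intergenic genomic regions, with negative controls included. After Alexa488 anti-GST antibody detection and a 488 nm scan, binding intensity was set as the highest Masliner-normalised natural-log median intensity across replicate spots of either probe orientation.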

Row | Sequence | gcPBM binding intensity (ln)
1 | GATATGATTAACTTATGTTATTCTTGATGGTTTCTT [GTGCAC_negctrl_site411] | 6.59
2 | TAATAAGGTTACAACAAACACACAAAGGAATATACA [CACACA_site4089] | 7.07
3 | TAATTTGTTAAAGGTTCACATATGGTATATACTTCT [XGTACX_negctrl_site292] | 6.8
4 | TATCACAAAATATACTGTACATACAGGCAGTAATAT [XGTACX_site2487] | 7.02
5 | TTATAAAACCATGTCATCAACATAGGCACAAAAATG [CACACA_negctrl_site1160] | 7.1
6 | AAGAATCACCAAATATGTACACACCTTAACATGTTT [XGTACX_site4272] | 7.24
7 | CCACTGTATGAATGCACACATTCATAGAATTGCTAT [CACACA_site2676] | 7.11
8 | TTATTTTACTTTTATGCAACTAAAAATATTGCTATA [XGTACX_negctrl_site277] | 7.06
9 | AATAAAATTTGCGATGCACACAGAATAGCTAATATG [CACACA_site8983] | 7.16
10 | CATATAGATTTGTTCACACACACACTAAAAAAAAAA [CACACA_site7212] | 7.11
11 | ATATTCAATTCATACACACACAATTTAAGAATGATA [CACACA_site3883] | 7
12 | ACAAATGTGAGAAAGACACACATATAATAAAAAACA [CACACA_site1156] | 6.89
13 | TATATTTAATTATTTTGTACTCATATAAAGATGATG [XGTACX_site5488] | 6.91
14 | AAAAAAAAAATATTTGAACACACGAGGATATATAAA [CACACA_site139] | 6.89
15 | CACACGCACGAACACACACACACACGCACGCACATA [CACACA_site6305] | 7.62
16 | TACAGACATACATACACACATACATACAGACATACA [CACACA_site1941] | 7.17
17 | TACATATTTACTATCACACACACGATATAAATAAAT [CACACA_site6701] | 7.11
18 | ATGAATAAAAAAGGTGGTACATATATATATATATAT [XGTACX_site7893] | 8.87
19 | ATACATATATAATTATGTACGTATATTTTATATAAC [XGTACX_site4292] | 7.41
20 | AAAATAATATAAATAATATAAGTGAGCATATATATA [TGCATGCA_negctrl_site527] | 7.32
21 | TGTCTTGTAAATTATTGTACTATTTAAAGTATAAAA [XGTACX_site7863] | 7.07
22 | TGTAGTCTGGAGAAAAGTACATAGTATCTGGTAACA [XGTACX_site4940] | 6.86

Row | Sequence | gcPBM binding intensity (ln)
23 | TTTTAATTTTAAAAATGTACTTTTATTATTTTTAAT [XGTACX_site8300] | 6.71
24 | AAATAGTTAAAAAGGCGTACACATAAATAAATAAAT [XGTACX_site2096] | 7.59
25 | TATTATATGTAGTTGAGTACATATAAATACATATAT [XGTACX_site7933] | 7.14
26 | AATCTAATATAATGCACACATAAAAAAAAATCAAAC [CACACA_site3633] | 7.89
27 | GTATATATATATATATATATAATAGTAACTTTTACT [CACACA_negctrl_site608] | 7.81
28 | CATATATACCTATATACACACATATAGATTTATATA [CACACA_site6451] | 7.01
29 | TTATTCTACATATATGCATGTGTATGATCTGTTTAT [TGCATGCA_site782] | 7.04
30 | ATATAAATGATATGTACACACATTTATATATATAAA [CACACA_site3475] | 7.04
31 | AAAATAAAAAAAATGTAAAAGGTTAAAGTGAAATAT [CACACA_negctrl_site350] | 7.16
32 | TGATATTATCTCTTCACACACTCACATACAGACAAA [CACACA_site1246] | 7.13
33 | TAAAAATTAAAATGTTGTACAATGATAAAATATTAT [XGTACX_site7874] | 7.27
34 | ATTTATTTATATACAAGTACATAAAAAATTAACTTA [XGTACX_site6170] | 6.7
35 | TATTTGATAAAAAAAAGTACTAGAATTTCGCTTTTG [XGTACX_site7754] | 6.83
36 | CTCAACATATACGTAACACACATATAAATATAAATA [CACACA_site7749] | 7.29
37 | TAAATTGAAATATATTGTACATTATCAACTAAGGGA [XGTACX_site1635] | 7
38 | AAATTATAAAATAACTGTACCAATCCTTTTTTTTTA [XGTACX_site2229] | 6.68
39 | ATATTTAAAAAAGAGTGTACTCATCTCTTTTAAAAA [XGTACX_site1160] | 6.7
40 | ATGTTGCTCATATGAGTGCACGTTTCATTTCAGTTT [GTGCAC_site9865] | 9.44
41 | AATGTAGGTTTATTTACACACAAATATAGATATATA [CACACA_site6825] | 6.87
42 | GTGTATTTATGTTATACACACAAAAATATTTTGTAT [CACACA_site4305] | 7.23
43 | CTATTTCGTATATATAGTACATATTATAACATACTA [XGTACX_site978] | 7.35
44 | AATTTATATAATTTTGTGCACAATATTCATGTATAT | 8.93

Row | Sequence | gcPBM binding intensity (ln)
45 | ACAAAATAAAAACACACACACAAACACAAAAAAATA [CACACA_site3390] | 7.13
46 | AGCTCTTGTCATTTTGCACACACACCGGTATAGGTT [CACACA_site5654] | 7
47 | AGAAGGTAAAAACACACACACACATACAAAAAAAAA [CACACA_site3767] | 7.01
48 | TATATATACAGACACATACACACAAATAAAAAAACA [CACACA_site3413] | 7.22
49 | CCTCCATTAGATACTTGTACATAAAAGTTTTGATTG [XGTACX_site7428] | 7.06
50 | AGACTTTGTACAAACACACACATGAACACAATATTA [CACACA_site1360] | 7.22
51 | AATCATAAAATCATATGTACACATTTTTCCTATGAT [XGTACX_site8799] | 6.93
52 | ATTTTATTAATTTGGTGTACTTAATTTATATTTTTC [XGTACX_site4947] | 6.94
53 | AAAAAAAAAAAATAATAAATAAATAAAAATAAATGA [CACACA_negctrl_site1623] | 6.78
54 | GAACCGTGCAAATGTTGTACACTTTAAAAATATTCT [XGTACX_site4488] | 8.21
55 | ATATGTGTGTAGTGTTCAATTATATTGATGTGAAGG [TGCATGCA_negctrl_site462] | 7.13
56 | TTATAATAATTTTATGCACACAGAAAAATACAAGGT [CACACA_site9169] | 8.21
57 | ATAATATATATATTAACACACATCCTTTTATGTATA [CACACA_site1203] | 6.94
58 | TACATATAGAAACACACACACATATATATATATATA [CACACA_site1300] | 9.59
59 | TAGGAGCCTAGACACACACACAAAAAAAAAAAAAAA [CACACA_site6911] | 6.85
60 | AAAACGAAAATTTGGAAACCAAAGGAAAAACATAAT [GTGCAC_negctrl_site709] | 7.01
61 | AAAAAGGTTATTGGTACACACATATGTATATATATA [CACACA_site552] | 8.31
62 | TATTTAATGTGATACTTATATTATTTTATGATTAAA [GTGCAC_negctrl_site25] | 6.72
63 | TATACATACTCACCCACACACAAAAAAAAAAAAAAA [CACACA_site862] | 7.23
64 | TATATAAGAATTTTTACACACATGAAAATGTAGATA [CACACA_site3735] | 6.83
65 | GTTAGGATAGATTAGACATGCACATAAATGCACTTC [TGCATGCA_site561] | 11
66 | TTTTTATAGAATTTAACACACATTTCATATAAAAAA [CACACA_site7453] | 6.94

Row | Sequence | gcPBM binding intensity (ln)
67 | TATATAACATAATATACACACATTATATGCGTAATT [CACACA_site6098] | 6.9
68 | TTAAAATTCAAAAAAAAAAATCAGAATATCAGAAAA [CACACA_negctrl_site1361] | 6.86
69 | GATATATAAATAAATACACACATAAAATAGAAATAT [CACACA_site6881] | 7.27
70 | ATTAAAGAAATATATACACACATTATGGGGGAATAA [CACACA_site178] | 7.49
71 | ACATATTAAAATATATGTACATAAAATATGAAAAAA [XGTACX_site5869] | 7.16
72 | ATATTTATTCCTTTTGGTACACAAAAAAAAAAAAAA [XGTACX_site8126] | 6.97
73 | AATTTAAGCAGAACATATATATATATATATATAAAG [CACACA_negctrl_site769] | 7.43
74 | TATATGCTATAATATACACACATACCTATATTTATA [CACACA_site6383] | 7.07
75 | TTTAAATGCTTTTTGTGGTGACTTATCCTTTCATAA [XGTACX_negctrl_site109] | 6.77
76 | AATTATTTCTTTTACACATGCAATATTTAATTAAAA [TGCATGCA_site598] | 7.01
77 | TTATTTGATTACTTGCGTACTTATTTCATATTTTTT [XGTACX_site6648] | 6.89
78 | ATGAGAAAACATAAAAGTACAAAAAGAAAAAAAAAA [XGTACX_site6020] | 6.71
79 | TCATAGTATGGACACACACACACACCCATATATATA [CACACA_site5033] | 7.46
80 | TTGGGTCAAACATAAACACACACAAAAAGAAAAAAT [CACACA_site8328] | 6.87
81 | TATTATATTAATGATGGTACAGTGTATATATATAAT [XGTACX_site1286] | 7.15
82 | ACATATAATATAAAGTGTACAAGAAAATAAAAATAA [XGTACX_site1273] | 6.98
83 | TTTCCATATTTTTAAAGTACATATTTCCGTTTCCAC [XGTACX_site7832] | 7.08
84 | TAATAATAAACAACCACACACAAAAAAACAAAAAAA [CACACA_site3269] | 6.98
85 | GTAGCACATATATATTGTACATAATATATACATTAT [XGTACX_site6354] | 7.04
86 | ATTTAATTATGTAAGTGTACTTTGGAATATAATATT [XGTACX_site3186] | 7.14
87 | TTTATTTTATAATTCACACATATATACCTATTTTAT [CACACA_site5709] | 6.95
88 | GTGTGGTGCTCGAGGAGTACAAACAATATGTAATTT [XGTACX_site4160] | 9.03
